Results as given in PubChem BioAssay AID463173 (ICCB-Longwood Screening Facility, Harvard Medical School, 2010).
About 4,300 (8.3%) of roughly 52,000 compounds were called active. No stated cut-off is given here; in the data, active means survival mostly below about 52% (no sharp cut-off); inactive means mostly above about 56%. This is one part of the list.

Tested on: DeltatarO mutant
Assay: growth inhibition of S. aureus wild type versus tarO mutant, primary screen, teichoic acid synthesis inhibitors, RN4220, OD600 (AID 463173)
Details: OD600, 18 h, stronger effect = lower value, screened at 18.75 µg/mL (by protocol)

| SMILES | survival |
| --- | --- |
| CCn1cc(C(=O)NCCc2ccccc2)c(=O)c2cc(S(=O)(=O)N3CCCCCC3)ccc21 | inactive: 66% |
| Cc1nn(C(C)C(=O)N2CCN(c3ccc(F)cc3)CC2)c(=O)c2c1sc1ccccc12 (stereo unspecified) | inactive: 105% |
| CCOC(=O)c1ccc(NC(=O)CCCc2nc(-c3cc(OC)c(OC)c(OC)c3)no2)cc1 | active: 44% |
| CCCNC(=O)C1CCC(Cn2c(=O)c3sccc3n(CC(=O)NCc3ccccc3)c2=O)CC1 (stereo unspecified) | inactive: 76% |
| Cc1nn(CCCC(=O)NCc2ccccc2Br)c(=O)c2c1sc1ccccc12 | inactive: 88% |
| O=C(/C=C/N1CCOCC1)c1cc2ccccc2o1 | inactive: 99% |
| CCOc1ccc(S(=O)(=O)N(CC(=O)Nc2ccc(OC)cc2OC)c2ccccc2)cc1 | inactive: 145% |
| O=C(CN1C=NS(=O)(=O)c2ccccc21)Nc1ccccc1F | inactive: 77% |
| O=C(NCc1ccccc1F)C1CCCN(C(=O)N2CCOc3ccccc32)C1 (stereo unspecified) | inactive: 86% |
| Cc1ccc2c(CC(=O)Nc3ccc(S(=O)(=O)N4CCCCC4C)cc3)coc2c1C (stereo unspecified) | inactive: 53% |
| CCc1ccc2ncc3c(-c4ccc(F)cc4)nn(CC(=O)NC4CCCCC4)c3c2c1 | inactive: 106% |
| CCOC(=O)Cn1c(=O)n(-c2cccc(Cl)c2)c2nc(-c3ccccc3Cl)nc(C(N)=O)c21 | inactive: 80% |
| COc1ccc(N2CCN(CCCNC(=O)c3nnc(Cc4ccc(F)cc4)o3)CC2)cc1 | inactive: 107% |
| CN(C)c1ccc(CNC(=O)Cc2ccc(NC(=O)N3CCCCc4ccccc43)cc2)cc1 | inactive: 83% |
| CC(C)(C)NC(=O)CCSc1nnc(-c2ccccc2)o1 | inactive: 84% |
| CC(=O)N1c2ccc(S(=O)(=O)N3CCC(C(=O)Nc4cccc(Cl)c4C)CC3)cc2CC1C (stereo unspecified) | inactive: 84% |
| CC(C)(C)C(=O)C1=C(O)C(=O)N(Cc2ccccc2)C1c1cccnc1 (stereo unspecified) | inactive: 99% |
| COc1ccc(Nc2ncc(C(=O)Nc3ccc(F)cc3F)c3ccccc23)cc1 | active: 35% |
| CCOCCCn1c(SCC(=O)Nc2ccc(F)cc2)nc2c(sc3ccccc32)c1=O | inactive: 128% |
| CCC(C(=O)Nc1cc(-c2cn3cccnc3n2)ccc1C)c1ccccc1 (stereo unspecified) | inactive: 91% |
| COc1ccccc1N1CCN(S(=O)(=O)c2ccc3c(c2)CCCN3C(C)=O)CC1 | inactive: 58% |
| Cc1cc(=O)n2nc(N3CCC(C(=O)NCCCOC(C)C)CC3)sc2n1 | inactive: 100% |
| O=C(CC1NCCNC1=O)Nc1ccc(F)c(Cl)c1 (stereo unspecified) | inactive: 70% |

| SMILES | survival |
| --- | --- |
| O=C(CSc1nnc(CNC(=O)c2ccccc2)n1-c1ccc(F)cc1)Nc1ccccc1F | inactive: 74% |
| Cc1cc(NC(=O)c2oc3c(c2C)-c2[nH]ncc2CC3)ccc1Br | active: 3% |
| Cc1nn(-c2ccc(F)cc2)c(-n2cccc2)c1C(=O)N1CCCCC1C (stereo unspecified) | inactive: 75% |
| COc1ccc(NC(=O)CN2CCCN(Cc3ccccc3)S2(=O)=O)cc1 | inactive: 88% |
| Fc1ccc(CNc2nc(-c3ccc(Cl)cc3)cc(C(F)(F)F)n2)cc1 | active: 12% |
| O=C(CSc1nc2ccccc2nc1Cc1ccc(Cl)cc1)N1CCCCC1 | inactive: 74% |
| CCCCOC(=O)c1ccc(NC(=O)c2ccc3c(c2)CCCN3S(C)(=O)=O)cc1 | inactive: 96% |
| CCCCNS(=O)(=O)c1ccc(NC(=O)c2c(-c3ccccc3)noc2C)cc1 | inactive: 101% |
| COc1ccc(CNC(=O)CSc2ncnc3nc[nH]c23)cc1 | inactive: 73% |
| CCc1ccccc1-n1c(SCC(=O)Nc2ccc(C)cc2)nc2n[nH]c(C)c2c1=N | inactive: 94% |
| CCc1cccc(NC(=O)Cn2c(-c3ccc(F)cc3)cc(C(C)=O)c2C)c1 | inactive: 73% |
| O=C(c1ccc2c(c1)N(Cc1ccccc1Cl)C(=O)c1ccccc1S2)N1CCCC1 | inactive: 90% |
| COc1ccc(CCCC(=O)NN=Cc2ccco2)cc1 | inactive: 54% |
| O=C(CC1CCCCC1)Nc1ccccn1 | inactive: 73% |
| Cc1ccccc1CNC(=O)CN1CCSc2ccccc21 | inactive: 89% |
| COc1ccc(Cl)cc1NC(=O)CSc1nc(-c2cccs2)cc(C(F)(F)F)n1 | active: 35% |
| O=c1oc2ccccc2cc1-c1nc(-c2cccc(Cl)c2)cs1 | inactive: 102% |
| COc1ccccc1N1CCN(c2ncc3c(n2)CCN(Cc2ccc(C)s2)C3)CC1 | inactive: 80% |
| CCC(CC)C(=O)Nc1ccc2nc(SCC(=O)N3CCOCC3)sc2c1 | inactive: 82% |
| Cc1ccccc1C(=O)Nc1sc2c(c1C(=O)N1CCCCC1)CCC(C(C)(C)C)C2 (stereo unspecified) | active: -2% |
| O=C(NCc1ccc(Cl)cc1)C1CCN(S(=O)(=O)c2ccc(F)cc2)CC1 | inactive: 50% |
| CSc1ccc(CCNC(=O)c2c(C)nn(-c3ccc(F)cc3)c2-n2cccc2)cc1 | inactive: 74% |
| Cc1ccc(CSc2nc3ccc(NC(=O)CC(C)C)cc3s2)cc1 | inactive: 82% |

| SMILES | survival |
| --- | --- |
| CCC(C)n1c(SCc2ccc(F)cc2Cl)nc2ccsc2c1=O (stereo unspecified) | inactive: 128% |
| CCOC(=O)c1noc2ncn(Cc3ccc([N+](=O)[O-])cc3)c(=O)c12 | inactive: 124% |
| N#Cc1ccc(C2NC(=O)NC3=C2C(=O)OC3)cc1 (stereo unspecified) | inactive: 77% |
| CCN(CC)C(=O)Cn1cc(SCC(=O)Nc2cc(OC)ccc2OC)c2ccccc21 | inactive: 91% |
| Cc1ccc(Cl)cc1N1CCN(C(=O)c2sc3nc4n(c(=O)c3c2C)CCC4)CC1 | inactive: 68% |
| CN(C)CCNC(=O)c1ccc2nc(Cc3ccccc3)oc2c1 | inactive: 102% |
| COc1ccc(Cl)cc1NC(=O)CSc1cc(C)[nH]c(=O)n1 | inactive: 80% |
| CCCCc1c(C)[nH]c2ccccc2c1=O | inactive: 83% |
| Cc1cccn2c(=O)cc(CSc3nnc(NC(=O)C(C)C)s3)nc12 | inactive: 91% |
| CCN(CC)CC(=O)Oc1ccc(NC2=NS(=O)(=O)c3ccccc32)cc1 | inactive: 96% |
| COc1ccccc1N1CCN(S(=O)(=O)CCNC(=O)COc2ccc(F)cc2)CC1 | inactive: 102% |
| Cc1ccc(CNC(=O)Cn2c(=O)cc(-c3ccccc3)c3c(C)nn(C)c32)cc1 | inactive: 89% |
| Cc1c(C(=O)NCCc2ccccc2)cccc1-n1cnc2cccnc21 | inactive: 75% |
| CCc1ccc(NC(=O)CC2C(=O)N(c3ccc(OC)cc3)C(=O)N2Cc2ccc(OC)cc2)cc1 (stereo unspecified) | inactive: 100% |
| COc1ccc(CCNc2ncnc3c2c(-c2ccccc2)cn3-c2cccc(Cl)c2)cc1OC | inactive: 69% |
| CS(=O)(=O)NCc1nnc(SCC(=O)NC2CCCCC2)n1-c1ccc(F)cc1 | inactive: 68% |
| Cc1cc(F)c(F)cc1C(=O)N1CCN(C)CC1 | inactive: 71% |
| Cc1cc(C)cc(NC(=O)CN2C(=O)CSc3ccc(S(=O)(=O)N4CCCC4)cc32)c1 | inactive: 85% |
| CCOc1ccc(NC(=O)Cn2c(=O)n(Cc3ccccc3)c(=O)c3sc4ccccc4c32)cc1 | inactive: 74% |
| N#Cc1ccc(-c2cccnc2)n(CC(=O)NCc2ccccc2)c1=O | inactive: 90% |
| Cc1cc(CN2CCC(C)CC2)cc(C)c1O | inactive: 104% |
| Cc1nn(CC(=O)N2CCN(c3ccccc3)CC2)c(=O)c2cc3cc(F)ccc3n12 | inactive: 89% |
| CC1=C(c2ccc(C(C)C)cc2)S(=O)(=O)N=C1N1CCC(C(=O)NCc2ccco2)CC1 | inactive: 79% |

| SMILES | survival |
| --- | --- |
| CCOC(=O)c1c(NC(=O)CSc2cn(CCNC(=O)c3ccccc3OC)c3ccccc23)sc2c1CCCC2 | inactive: 77% |
| O=C(NCC1CCN(Cc2cccc(F)c2)CC1)c1cc2ccc3cccnc3c2[nH]1 | inactive: 70% |
| Nc1n[nH]c(-c2ccc(Cl)cc2)c1Cl | inactive: 93% |
| Cc1ccc(NCc2ccccc2-c2nnc(-c3ccccc3Cl)o2)cc1Cl | inactive: 76% |
| COc1ccc(N2C(=O)CSC23C(=O)N(CC(=O)NCc2ccccc2)c2ccccc23)cc1 (stereo unspecified) | inactive: 94% |
| CS(=O)(=O)NCCc1csc2nc(-c3ccccc3)nn12 | active: -2% |
| C/C(=N\NC(N)N)C1CCCCCCCCCCC1 | active: 0% |
| COc1ccc(S(=O)(=O)NC2(C(F)(F)F)NC(=O)N(CCc3ccc(OC)c(OC)c3)C2=O)cc1 (stereo unspecified) | inactive: 143% |
| COc1cc(C2C(C(=O)OC(C)C)=C(C)N=C3SCCC(=O)N32)ccc1OCc1ccccc1 (stereo unspecified) | inactive: 66% |
| COc1ccc(NC(=O)NCc2cccn2Cc2ccc(F)cc2)cc1OC | inactive: 95% |
| COc1cccc(NC(=O)N(Cc2cn(C)c3ccccc23)C2CCCCC2)c1 | active: -12% |
| COc1ccc(OC)c(NC(=O)c2c(NCc3ccc(C)o3)sc3c2CCCCC3)c1 | inactive: 68% |
| Cc1cc(=O)n(Cc2ccc(F)cc2Cl)c2c1c(C)nn2-c1ccccc1 | inactive: 96% |
| COc1ccccc1CNC(=O)C1CCN(S(=O)(=O)c2c(C)noc2/C=C/c2cccs2)CC1 | inactive: 59% |
| CCn1c(=O)c2sccc2n2c(CCCC(=O)N3CCN(c4cc(C)ccc4C)CC3)nnc12 | inactive: 95% |
| Cc1ccn2c(=O)c(C(=O)NCCc3ccc(S(N)(=O)=O)cc3)c(O)nc2c1 | inactive: 66% |
| Cc1ccc2onc(CC(=O)Nc3cc(F)ccc3F)c2c1 | inactive: 48% |
| Cc1ccc(-c2cc(C(F)(F)F)n3nc(C(=O)Nc4sc5c(c4C#N)CCC(C)C5)cc3n2)cc1 (stereo unspecified) | inactive: 95% |
| O=C(CSc1nnc2scc(-c3ccc(Cl)cc3)n12)Nc1ccccc1F | inactive: 62% |
| COC(=O)c1c(SC)nc2ccccc2c1OCc1ccc(C)cc1C | active: 46% |
| COc1cc(C(=O)Nc2ccc(Cl)c(-c3nc4ncccc4o3)c2)cc(OC)c1OC | inactive: 123% |
| Cc1ccc(C)c(-c2nn(CC(=O)Nc3cc(F)ccc3F)c(=O)c3c2CCCC3)c1 | active: 41% |
